# Laboratory results taken from PubChem BioAssay AID1508642 (National Center for Advancing Translational Sciences (NCATS), 2021).
# In all, about 43,000 compounds went through this assay and about 200 (0.47%) were called active. Not shown: some 12% with an inconclusive outcome. Calls follow the shape of the dose curve; as a rule, active = well fitted cell-killing curve with a large enough effect; inconclusive = small, poorly fitted or top-dose-only effect, or effect the other way; inactive = flat fitted curve, though single readings scatter. The list shows a part of the results.
# Assay: Cell viability qHTS assay in S16 Pmp22-F2sN cells; also: nearly all actives have a fitted effect of over 65% in size
# Conditions: S16 Pmp22-F2sN Schwann cells viability, CellTiter-Glo, 24 h; series mostly up to 57.5 µM; activity change, negative = cytotoxicity: at the top concentration
# Procedure, shortened: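 Used to flag compounds lowering reporter output through toxicity, this quantitative HTS measures ATP-based CellTiter-Glo luminescence in S16 Pmp22-F2sN Schwann cells after 24 h compound exposure at 37C.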
# % is scaled to controls: 0 for no effect and ±100 for the full control effect; potency is read from the fitted curve at half-maximal effect.
SMILES,"activity change, negative = cytotoxicity",Potency
Cc1ccc2c(c1)c1c(c(=O)n(-c3cccc(Cl)c3)c(=O)n1CC(=O)N1CCCC1)n2C,inactive: 8.2%,
CCOc1ccc(-n2c(SCc3nc(-c4ccc(OC)cc4)no3)nnc2-c2ccncc2)cc1,inactive: -10.4%,
COc1ccc(Br)cc1CNC(=O)c1cc(=O)[nH]c2ccc(S(=O)(=O)N3CCCC3)cc12,inactive: 17.6%,
CCOc1cccc2cc(-c3nc4sc5c(c4c(=O)[nH]3)CCC(C(C)(C)C)C5)c(=O)oc12 (stereo unspecified),inactive: 5%,
COc1ccc(NCc2cc3cc4c(cc3n(CC(=O)Nc3cc(C)ccc3C)c2=O)OCCO4)cc1,inactive: -12%,
CC(C)c1ccc(NS(=O)(=O)c2ccc3nc(-c4ccccc4)[nH]c3c2)cc1,inactive: -25.9%,
Cc1nn2c(=O)cc(COC(=O)c3ccccc3NC(=O)C(C)Oc3ccccc3)nc2s1 (stereo unspecified),inactive: 27.6%,
CCOc1ccc(CN2CCc3nc(Nc4ccc5c(c4)OCCO5)ncc3C2)cc1,inactive: -1.2%,
COc1ccc(CCNC(=O)c2ccc(Cn3c(=O)c4ccccc4n(Cc4cccc(Cl)c4)c3=O)cc2)cc1OC,inactive: 6.69%,
CCOc1ccccc1NC(=O)C(CC)Sc1nc2ccncc2[nH]1 (stereo unspecified),inactive: 0.443%,
COc1ccc(NC(=O)c2ccc3c(c2)sc2nc(-c4ccc(OC)cc4)cn23)cc1,inactive: 2.76%,
Cc1ccc(NC(=O)Cn2c(=O)n(Cc3ccco3)c(=O)c3ccccc32)c(C)c1,inactive: 18%,
CCN(CC)c1cc2c(cc1F)c(=O)c(S(=O)(=O)c1cccc(C)c1)cn2C,inactive: 0.111%,
CCOc1ccc(C2CC(=O)N(c3cccc(F)c3)C3=C2C(=O)OC3)cc1 (stereo unspecified),inactive: 4.17%,
Cc1ccc(-n2nc3c(=O)n(CCCC(=O)NCCc4ccccc4Cl)nc(C)c3c2C)cc1,inactive: -2.27%,
Cc1ccc(-n2c(=O)c3ccc(C(=O)NCc4ccco4)cc3n(Cc3ccccc3C#N)c2=O)cc1,inactive: -1.97%,
Cn1c(=O)c2cc(C(=O)NCCCN3CCN(c4ccccc4F)CC3)sc2c2ccccc21,inactive: -14.4%,
CCOC(=O)c1ccc(NC(=O)c2cc3sccc3n2Cc2ccc(Cl)cc2)cc1,inactive: 1.23%,
Cc1cccc(NC(=O)CSc2nc(-c3ccco3)cc(C(F)(F)F)n2)c1C,inactive: 2.21%,
Cc1cccc(N2CCN(S(=O)(=O)c3csc(C(N)=O)c3)CC2)c1C,inactive: -15.2%,
Cc1ccc(N(Cc2cccs2)C(=O)c2ccccc2Cl)cc1,inactive: 11%,
COc1ccc(NC(=O)C(C)N(c2ccccc2)S(C)(=O)=O)cc1 (stereo unspecified),inactive: -0.457%,
COc1ccc(C)cc1NC(=O)Cn1c(=O)n(Cc2nc(C)no2)c(=O)c2ccccc21,inactive: -18.2%,
O=C(Nc1nnc2n1CCS2)c1ccc(F)cc1F,inactive: 3.51%,

SMILES,"activity change, negative = cytotoxicity",Potency
O=C(c1ccccc1Cl)N1CCCCC1CCN1CCCCC1 (stereo unspecified),inactive: -1.13%,
CCOc1ccc(NC(=O)C(=O)NCc2ccco2)cc1,inactive: -0.0401%,
COc1cccc(C(=O)NCC(c2ccc3c(c2)OCO3)N2CCOCC2)c1 (stereo unspecified),inactive: -9.05%,
COc1ccc(C2=C(C)C(N3CCC(C(=O)Nc4ccc(F)cc4C)CC3)=NS2(=O)=O)cc1,inactive: -3.73%,
O=C(Nc1ccc(Cl)c(C(F)(F)F)c1)C(Cc1ccccc1)NS(=O)(=O)c1ccc(Br)s1 (stereo unspecified),inactive: 1.78%,
CC1(C)CC(=O)c2cc(C(=O)Nc3ccccc3Cl)c(=O)n(-c3ccc(Cl)cc3)c2C1,inactive: -0.517%,
COc1ccc2cc3cc(C(=O)NCc4ccccc4OC)oc3nc2c1,inactive: 0.415%,
O=C(NCc1ccccc1)C(=O)NCC(c1cccs1)S(=O)(=O)c1ccccc1 (stereo unspecified),inactive: -11.9%,
CCSc1nnc(NC(=O)c2cc(=O)c3cc(C)c(C)cc3o2)s1,inactive: -3.89%,
O=C(Nc1cccc(C(F)(F)F)c1)c1cc(-c2ccc3c(c2)OCCO3)on1,inactive: 1.61%,
CCc1cnc2c(c1SCC(=O)c1ccc(Cl)cc1)c(=O)n(C)c(=O)n2C,inactive: -5.64%,
COc1ccc(Cn2c(=O)c3cccnc3n(CC(=O)Nc3c(C)cc(C)cc3C)c2=O)cc1,inactive: 5.66%,
CCOC(=O)c1c(-c2ccc(OC)cc2)oc2ccc(OCc3ccc(Br)cc3)cc12,inactive: 0.247%,
Cc1cccc(NC(=O)CSc2nc3ccccc3nc2N2CCOCC2)c1C,inactive: -2.87%,
CCOc1ccc(CNS(=O)(=O)c2cc3c(cc2C)NC(=O)CO3)cc1,inactive: 2.05%,
CC(=O)c1ccc(N2CCN(C(=O)CCCCn3c(=O)[nH]c4ccsc4c3=O)CC2)cc1,inactive: -4.41%,
O=C(Nc1nnc2n1CCS2)c1ccccc1C(F)(F)F,inactive: 0.921%,
CC(C)CCNC(=O)CCC(=O)NNc1nc2ccccc2c2nc(-c3ccccc3)nn12,inactive: 1.01%,
COc1cc(OC)cc(C(=O)N2CC(=O)Nc3ccc(Cl)cc3C2c2ccccc2)c1 (stereo unspecified),inactive: -11.3%,
O=C(NCCc1ccc(F)cc1)C(=O)NCC(c1ccco1)S(=O)(=O)c1cccs1 (stereo unspecified),inactive: 3.02%,
Cc1ccc(N(CC(=O)Nc2ccc(Br)cc2)S(=O)(=O)c2cccs2)cc1,inactive: -1.38%,
COc1ccc(S(=O)(=O)n2nc(C)c(S(=O)(=O)N3CCC(C)CC3)c2C)cc1OC,inactive: 3.63%,
COc1ccc(NC(=O)Cn2cc(C(=O)c3ccccc3)c(=O)c3cc(OC)ccc32)c(OC)c1,inactive: 18.8%,
O=C(O)CCC(=O)Nc1sc2c(c1C(=O)Nc1ccccc1)CCCCC2,inactive: 9.74%,

SMILES,"activity change, negative = cytotoxicity",Potency
Cc1ccsc1CN(C(=O)c1ccc(OCC(C)C)cc1)C1CCS(=O)(=O)C1 (stereo unspecified),inactive: 0.998%,
CC1(C)CC(=O)c2cc(C#N)c(=O)n(-c3ccc(Cl)cc3)c2C1,inactive: 0.485%,
Cc1ccc(Sc2c(C)nn(C(=O)c3ccc(Cl)cc3)c2C)cc1,inactive: -6.22%,
Cc1c(C(=O)OC(C)C)sc(NC(=O)C2c3ccccc3Oc3ccccc32)c1C(=O)OC(C)C,inactive: -20.5%,
CCOC(=O)c1c(S(=O)(=O)N2CCCC(C(=O)Nc3ccc(C)cn3)C2)c(C)n(C)c1C (stereo unspecified),inactive: 0.435%,
Cc1ccc(-n2c3nc(=O)[nH]c(=O)c-3cc3c(C)nn(-c4ccccc4)c32)cc1C,inactive: 9.69%,
CCOC(=O)c1cccc(NS(=O)(=O)c2cc(-c3cnc(C4CC4)o3)ccc2C)c1,,active: 20 µM
Cc1ccc2oc(-c3cccc(NC(=O)Cc4ccc(Cl)cc4)c3)nc2c1,inactive: -2.57%,
COc1ccc(-n2nc(C(=O)N3CCN(c4ccccc4OC)CC3)c3c4ccccc4n(C)c3c2=O)cc1Cl,inactive: 20.6%,
CC(=O)N1CCOc2cc(S(=O)(=O)NCc3ccc(F)cc3)c(C)cc21,inactive: -15.7%,
O=C(NC1CCCc2ccccc21)c1ccc2c(c1)sc1nc(-c3ccccc3)cn12 (stereo unspecified),inactive: 2%,
CC(C)C1N=C2c3ccccc3N=C(SCC(=O)NCc3ccc(Cl)cc3)N2C1=O (stereo unspecified),inactive: 19%,
CCOc1ccc(NC(=O)Cn2ccn3nc(-c4ccc(OC)c(OC)c4)cc3c2=O)cc1,inactive: -1.2%,
Cc1nc(N2CCCC2)c2c(C(=O)Nc3cccc(Cl)c3)c(C)oc2n1,inactive: -3.53%,
CCCS(=O)(=O)c1nc(S(=O)(=O)c2ccc(C)cc2)c(NCc2ccccc2Cl)s1,inactive: -14.1%,
CCOc1ccccc1NC(=O)C1CCN(S(=O)(=O)c2cccs2)CC1,inactive: 16.2%,
CC(CNC(=O)CCc1cn(Cc2ccccc2Cl)c2ccccc12)c1ccccc1 (stereo unspecified),inactive: 7.14%,
COc1cccc(Oc2nc(C)nc3c2oc2ccccc23)c1,inactive: 0.862%,
Cc1c(C(=O)NCc2cccc(Cl)c2)sc2nc[nH]c(=O)c12,inactive: -3.72%,
O=C(Cn1cnc(S(=O)(=O)N2CCCC2)c1)Nc1cccc(Br)c1,inactive: -1.69%,
Cc1cc(-c2nc3ncccc3o2)ccc1NC(=O)c1ccccc1Br,inactive: 7.01%,
CCCCOc1cccc(C(=O)N(Cc2ccc(N(C)C)cc2)C2CCS(=O)(=O)C2)c1 (stereo unspecified),inactive: -22.8%,
COc1ccc(CCNC(=O)Cn2c(=O)n(-c3ccccc3)c(=O)c3c(C)c(C)sc32)cc1OC,inactive: 7.75%,
O=C(COc1ccc(F)cc1)NCC(c1ccc(Cl)cc1)N1CCCCC1 (stereo unspecified),inactive: 0.137%,

SMILES,"activity change, negative = cytotoxicity",Potency
Cc1ccc(CCNC(=O)CCCn2c(=O)c3ccccc3n(Cc3ccccc3C)c2=O)cc1,inactive: -5.35%,
CCOC(=O)c1ccc(NC(=O)CSc2nnc3c4ccccc4n(CC)c3n2)cc1,inactive: 9.92%,
COc1ccc(Cn2c(C(=O)O)c(CNCc3ccco3)c3ccc(OC)cc32)cc1,inactive: -11%,
O=C(CSc1c2c(nc3ccccc13)CCC2)Nc1ccc(F)cc1,inactive: 22.3%,
COc1ccc(-n2cnc3cc(C(=O)NC4CCCC4)ccc32)cc1,inactive: 0.503%,
CN(C)c1ccc(CNC(=O)c2ccc(Cn3c(=O)c4cccn4c4cccnc43)cc2)cc1,inactive: 10.7%,
COCCCNC(=O)CCCn1c(SCC(=O)c2ccc(F)cc2)nc2c(sc3ccccc32)c1=O,inactive: 1.76%,
COC(=O)c1ccccc1NC(=O)c1cnc(Nc2ccc(OC)cc2)c2ccccc12,inactive: 1.64%,
Cc1ccc(Cn2c(CNC(=O)CCc3ccccc3)nc3cccnc32)cc1,inactive: -3.57%,
Cc1cccc(N2CCN(Cc3nnc(-c4ccccc4C)o3)CC2C)c1 (stereo unspecified),inactive: 7.85%,
COc1ccc(C2=Nc3ccc(F)cc3NC(c3cccc(C(F)(F)F)c3)=N2)cc1,inactive: -6.11%,
CCCOc1ccc(C(=O)N(Cc2ccccc2Cl)C2CCS(=O)(=O)C2)cc1 (stereo unspecified),inactive: 1.74%,
Cc1cccc(C)c1NC(=O)c1ccc2c(c1)N(Cc1cccc(Cl)c1)C(=O)c1ccccc1S2=O (stereo unspecified),inactive: -0.994%,
CCOC(=O)c1ccc(NC(=O)Cn2nc(SC)c(S(=O)(=O)c3ccc(Cl)cc3)c2N)cc1,inactive: -8.2%,
CC(C)CC(=O)Nc1nnc(S(=O)(=O)N2CCCCCC2)s1,inactive: -1.25%,
CCOc1ccc(C(=O)Nc2cc(NC(=O)c3ccco3)ccc2OC)cc1Br,inactive: 3.76%,
Cc1ccc(CCNC(=O)CCN2N=C(c3ccc(C)cc3)CCC2=O)cc1,inactive: 3.65%,
COc1ccc(CCC(=O)NCc2ccc3c(c2)CCN3C(=O)c2ccc(F)cc2)cc1,inactive: -1.18%,
Cc1ccsc1CCN1C(=O)N(c2ccccc2)C(=O)C1CC(=O)Nc1ccc(F)cc1 (stereo unspecified),inactive: -5.6%,
COc1ccc(-c2nc3cc(NC(=O)Cc4ccc(Cl)cc4)ccc3o2)cc1OC,inactive: 7.44%,
Cc1ccc(Cl)cc1Nc1nc2ccccc2c2nncn12,inactive: 4.04%,
Cc1nc(C)c(-c2ccc(SCC(=O)Nc3ccc(Cl)c(Cl)c3)nn2)s1,inactive: -0.381%,
COc1ccccc1NC(=O)N1c2ccccc2Sc2ccccc21,inactive: -22.9%,
COc1ccc(OC)c(-n2nnc3c(sc4nc(C)c(Br)c(C)c43)c2=O)c1,inactive: 0.116%,
